Results taken from PubChem BioAssay (NCI).
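Cultured in 96-well plates, cells were exposed to test compound for 48 hours across five concentrations. GI50: concentration for 50% inhibition of growth. TGI: total growth inhibition.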

tested on: NCI-H322M lung; experiment: NCI-60 cell line screen, 48 h

Row | SMILES | GI50 | TGI
1 | C#C[C@]1(O)CC[C@H]2[C@@H]3CC=C4c5sc(Nc6ccc(Cl)cn6)nc5CC[C@]4(C)[C@H]3CC[C@@]21C | 7.72 µM | > 100 µM
2 | C/C(=C(/c1ccc(O)cc1)c1ccc(OCCN(C)C)cc1)c1ccc(Cl)cc1 | 25.8 µM | 94.7 µM
3 | O=C(NCc1ncc[nH]1)c1ccc(-c2nc3ccc4[nH]ncc4c3c3c2CCCC3)cc1 | 1.43 µM | 17.3 µM
4 | Cc1ccccc1NC(=O)Nc1nc2ccc([N+](=O)[O-])cc2s1 | 2.71 µM | 8.53 µM
